# Experimental data: PubChem BioAssay AID488969 (Vanderbilt High Throughput Screening Facility, 2010)
# Whole data set: some 110,000 compounds, median “z-score” near -0.1, cut for the highest 2% near 2. The list shows a part of the results. Activity calls are given as the source filed them.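 Rule for the calls: active = z-score in the third read window above 3 or below -3; inactive = the rest.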
# Biological target: Metabotropic glutamate receptor 8 (Rattus norvegicus) (UniProt P70579)
# Experiment: rat mGluR8 modulators via GIRK flux, primary screen, cell-based, thallium flux, HTS (AID 488969)
# Settings: HEK293 rat mGluR8, GIRK (G protein-gated inwardly rectifying potassium channel) thallium flux, FluoZin2; at 10 µM; stronger effect = higher value; submaximal glutamate (EC20) added with thallium
# Chain of UniProt P70579 (P70579 whole entry, looked up): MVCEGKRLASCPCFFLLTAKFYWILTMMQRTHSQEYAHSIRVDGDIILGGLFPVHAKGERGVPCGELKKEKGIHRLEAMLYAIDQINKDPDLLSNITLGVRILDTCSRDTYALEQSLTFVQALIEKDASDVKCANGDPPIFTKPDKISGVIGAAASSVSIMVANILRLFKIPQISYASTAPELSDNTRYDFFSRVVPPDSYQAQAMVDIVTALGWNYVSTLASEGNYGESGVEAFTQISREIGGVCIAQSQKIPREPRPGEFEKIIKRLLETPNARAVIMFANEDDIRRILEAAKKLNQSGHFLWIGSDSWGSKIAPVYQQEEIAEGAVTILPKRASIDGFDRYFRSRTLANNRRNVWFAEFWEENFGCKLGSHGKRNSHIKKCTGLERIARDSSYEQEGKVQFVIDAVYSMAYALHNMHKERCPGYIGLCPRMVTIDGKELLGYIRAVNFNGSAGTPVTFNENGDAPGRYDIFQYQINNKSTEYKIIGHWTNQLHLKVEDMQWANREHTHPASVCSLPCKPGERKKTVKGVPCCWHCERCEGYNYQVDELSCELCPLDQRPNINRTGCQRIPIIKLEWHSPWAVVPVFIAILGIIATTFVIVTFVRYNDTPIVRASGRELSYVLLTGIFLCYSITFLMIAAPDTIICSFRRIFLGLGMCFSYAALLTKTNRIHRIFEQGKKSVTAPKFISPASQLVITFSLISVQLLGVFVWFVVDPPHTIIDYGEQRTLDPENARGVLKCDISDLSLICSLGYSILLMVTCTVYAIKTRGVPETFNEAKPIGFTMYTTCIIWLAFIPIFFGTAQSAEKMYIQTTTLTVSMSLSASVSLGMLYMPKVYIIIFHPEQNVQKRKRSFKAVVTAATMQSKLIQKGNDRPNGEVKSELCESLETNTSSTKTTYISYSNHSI
row,Structure (SMILES),z-score
1,Cc1ccc(C(=O)NC(=S)NCCN2CCOCC2)cc1,0.477
2,CC(NC(=O)c1ccccc1Cl)C1COc2ccccc2O1 (centres undefined),-0.205
3,CCN1CCN(S(=O)(=O)c2ccc(C)c([N+](=O)[O-])c2)CC1,-0.169
4,CC(=O)N1CCN(c2ccc(N=Cc3c(O)n(Cc4ccccc4)c(=O)[nH]c3=O)cc2)CC1,-0.266
5,CC1=C(C#N)C(C(F)(F)F)(C(F)(F)F)N=C(c2ccco2)N1,0.283
6,O=C(NCc1cccc(Cl)c1)c1cccc(C(F)(F)F)c1,-0.539
7,CCN1C(=O)c2cccc3c(NS(=O)(=O)c4ccc(NC(C)=O)cc4)ccc1c23,-1.52
8,O=C(Nc1ccc(Cn2cccn2)cc1)c1ccc(COc2cccc(Br)c2)cc1,-0.354
9,CCOC(=O)CN1C(=O)S/C(=C/c2ccc3c(c2)n(C)c(=O)n3C)C1=O,-0.23
10,CCN(CCCNC(=O)C1CCC(=O)N1Cc1ccccc1Cl)c1cccc(C)c1 (centres undefined),-0.84
11,O=C(NCCCN1CCOCC1)c1cc(-c2ccccc2)on1,-0.329
12,Cc1ccccc1NC(=O)c1cc(N)ccc1N1CCCCC1,-0.319
13,Cc1ccc(/C=N\NC(=O)c2cc([N+](=O)[O-])cc([N+](=O)[O-])c2)o1,active: 4.57
14,COc1ccccc1N1CCN(C(=O)CSc2nc(C)c(Cc3ccccc3)c(=O)[nH]2)CC1,-0.00727
15,CCSC(=O)N(CC)CC(=O)Nc1c(CC)cccc1CC,-0.553
16,COc1cccc(C2C(C#N)=C(N)OC3=C2C(=O)CC(c2ccco2)C3)c1OCc1ccc(F)cc1 (centres undefined),-0.186
17,Cc1sc(NC(=S)NC(=O)CCc2ccccc2)c(C(N)=O)c1C,-0.297
18,Cc1ccccc1NC(=S)N(C)Cc1cn(C)c2ccccc12,0.812
19,O=C(NCc1ccco1)c1nc2c(nnn2Cc2cccc(Cl)c2)c(=O)[nH]1,-0.491
20,O=C(N/N=C\c1ccc(Cl)cc1)c1sccc1-n1cccc1,0.1
21,CC(NC(=O)CCC(=O)NC(C)C1COc2ccccc2O1)C1COc2ccccc2O1 (centres undefined),-0.434
22,COc1ccc(-c2nnc(SCC(=O)Nc3sc4c(c3C#N)CCCC4)n2-c2ccccc2)cc1,-0.275
23,CSc1ccc(Cl)c(C(=O)Nc2ccc(OCC(N)=O)cc2)c1,-0.157
24,O=C(Nc1ccc(Cl)cc1)[C@@H]1[C@@H]2C(=O)N(c3ccc4ccccc4c3)C(=O)[C@@H]2[C@H]2C=CC=NN21,-0.281
25,CCNc1ccc(S(=O)(=O)N(C)C)cc1NCC(=O)Nc1ccccc1F,-0.159
26,CCCCCCSc1cc(C)nc2ncnn12,-0.416
27,CN1CCC(C2(O)c3ccccc3CSc3sccc32)CC1 (centres undefined),2.02
28,Cc1cc2ncc(-c3ncc(C(F)(F)F)cc3Cl)cn2n1,-0.148
29,Cc1nn(-c2ccccn2)c2c1C(c1ccncc1)C1=C(CC(C)(C)CC1=O)N2 (centres undefined),-0.749
